Drawing on PMC4302535, this text covers binding for five molecules.

Protein sequences, listed by entry. Tags and fused reporters are not part of them.
UniProt P04147: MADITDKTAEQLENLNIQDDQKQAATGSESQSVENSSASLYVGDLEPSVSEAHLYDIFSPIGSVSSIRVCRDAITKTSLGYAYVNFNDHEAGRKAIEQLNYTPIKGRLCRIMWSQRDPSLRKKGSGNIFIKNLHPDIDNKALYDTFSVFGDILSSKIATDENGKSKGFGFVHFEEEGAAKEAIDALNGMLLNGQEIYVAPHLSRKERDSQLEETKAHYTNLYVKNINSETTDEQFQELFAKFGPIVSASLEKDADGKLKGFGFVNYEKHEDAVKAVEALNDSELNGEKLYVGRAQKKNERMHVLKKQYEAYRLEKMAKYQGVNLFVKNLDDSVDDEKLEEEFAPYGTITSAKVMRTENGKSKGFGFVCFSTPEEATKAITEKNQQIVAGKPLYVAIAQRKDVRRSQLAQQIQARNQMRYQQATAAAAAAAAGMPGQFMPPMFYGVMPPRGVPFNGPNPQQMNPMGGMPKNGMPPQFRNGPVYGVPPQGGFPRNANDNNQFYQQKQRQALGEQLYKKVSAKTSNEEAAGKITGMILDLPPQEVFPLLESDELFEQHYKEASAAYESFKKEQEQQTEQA

What all share (assay): co-IP; TAP-tagged bait captured from yeast whole-cell lysate on rabbit IgG coupled to Tosyl-activated Dynabeads M-280; Buffer A (20 mM Tris-HCl pH 8, 140 mM NaCl, 1 mM MgCl2, 0.5% NP40, 0.5 mM DTT, with RNasin); eluates probed on western blots
Background: A western blot detects proteins with antibodies after separation by electrophoresis.

The target in assay [1] is T1, eIF4G2-TAP (S. cerevisiae) (UniProt P39936).
T1 sequence: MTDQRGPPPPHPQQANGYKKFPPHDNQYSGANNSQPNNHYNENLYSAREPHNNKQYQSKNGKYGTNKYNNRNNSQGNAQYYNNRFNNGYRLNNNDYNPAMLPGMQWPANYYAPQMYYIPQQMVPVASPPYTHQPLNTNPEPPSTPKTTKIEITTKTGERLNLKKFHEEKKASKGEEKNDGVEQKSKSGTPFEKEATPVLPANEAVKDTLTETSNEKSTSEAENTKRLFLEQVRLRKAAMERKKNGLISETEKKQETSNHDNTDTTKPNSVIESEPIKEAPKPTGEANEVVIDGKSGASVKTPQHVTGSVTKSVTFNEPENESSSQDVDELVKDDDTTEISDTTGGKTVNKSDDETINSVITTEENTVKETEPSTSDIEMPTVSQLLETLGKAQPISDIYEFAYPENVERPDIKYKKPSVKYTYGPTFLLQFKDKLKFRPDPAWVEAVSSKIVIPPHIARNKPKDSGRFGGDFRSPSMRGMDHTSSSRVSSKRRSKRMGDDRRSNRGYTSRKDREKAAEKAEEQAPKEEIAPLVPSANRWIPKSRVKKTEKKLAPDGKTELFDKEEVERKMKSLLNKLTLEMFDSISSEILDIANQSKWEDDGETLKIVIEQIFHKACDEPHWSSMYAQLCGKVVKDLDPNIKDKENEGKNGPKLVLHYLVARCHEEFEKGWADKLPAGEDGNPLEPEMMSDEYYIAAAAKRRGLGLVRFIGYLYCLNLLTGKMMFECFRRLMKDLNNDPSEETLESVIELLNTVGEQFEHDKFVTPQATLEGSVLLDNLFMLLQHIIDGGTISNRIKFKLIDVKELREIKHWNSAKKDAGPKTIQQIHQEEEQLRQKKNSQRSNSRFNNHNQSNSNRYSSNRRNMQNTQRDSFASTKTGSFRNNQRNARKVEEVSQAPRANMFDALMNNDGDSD

Assay [2] has as its target T2, eIF4E-TAP (S. cerevisiae) (UniProt P07260).
T2 sequence: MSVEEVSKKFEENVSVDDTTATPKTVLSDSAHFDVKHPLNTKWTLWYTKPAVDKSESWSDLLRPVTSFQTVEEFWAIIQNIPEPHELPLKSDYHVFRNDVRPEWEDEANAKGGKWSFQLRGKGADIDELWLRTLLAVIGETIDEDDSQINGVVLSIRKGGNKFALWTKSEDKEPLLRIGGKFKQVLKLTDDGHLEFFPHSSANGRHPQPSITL

In assay [3] the target is Pab1p-TAP (S. cerevisiae) (UniProt P04147).
Assay [4] deals with T3, eIF4G1-TAP (S. cerevisiae) (UniProt P39935).
T3 sequence: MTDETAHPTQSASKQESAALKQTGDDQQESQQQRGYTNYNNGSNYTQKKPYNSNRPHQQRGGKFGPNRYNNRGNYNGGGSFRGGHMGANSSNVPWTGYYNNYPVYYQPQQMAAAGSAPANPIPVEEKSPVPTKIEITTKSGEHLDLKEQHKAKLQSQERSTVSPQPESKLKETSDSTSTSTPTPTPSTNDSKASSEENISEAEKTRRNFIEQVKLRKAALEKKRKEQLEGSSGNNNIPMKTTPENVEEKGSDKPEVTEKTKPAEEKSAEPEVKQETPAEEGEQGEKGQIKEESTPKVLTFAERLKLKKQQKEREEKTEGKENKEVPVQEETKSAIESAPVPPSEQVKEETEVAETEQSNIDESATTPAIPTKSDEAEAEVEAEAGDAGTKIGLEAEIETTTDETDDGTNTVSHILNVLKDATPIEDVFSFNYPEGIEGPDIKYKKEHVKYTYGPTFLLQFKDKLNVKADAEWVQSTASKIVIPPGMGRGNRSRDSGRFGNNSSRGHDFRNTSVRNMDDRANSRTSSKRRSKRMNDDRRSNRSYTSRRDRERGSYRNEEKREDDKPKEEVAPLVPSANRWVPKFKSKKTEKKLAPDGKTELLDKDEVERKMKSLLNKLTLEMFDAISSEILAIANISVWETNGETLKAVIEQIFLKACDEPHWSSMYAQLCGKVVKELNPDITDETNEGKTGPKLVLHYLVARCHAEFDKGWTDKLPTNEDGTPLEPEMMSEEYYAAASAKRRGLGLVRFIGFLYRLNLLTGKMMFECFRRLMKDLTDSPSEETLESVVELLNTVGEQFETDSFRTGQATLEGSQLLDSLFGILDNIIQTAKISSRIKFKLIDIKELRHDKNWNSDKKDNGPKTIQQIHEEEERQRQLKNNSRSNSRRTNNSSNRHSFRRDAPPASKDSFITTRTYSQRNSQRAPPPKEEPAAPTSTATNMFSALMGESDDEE

The target of assay [5] is T4, Caf20p-TAP (S. cerevisiae) (UniProt P12962).
T4 sequence: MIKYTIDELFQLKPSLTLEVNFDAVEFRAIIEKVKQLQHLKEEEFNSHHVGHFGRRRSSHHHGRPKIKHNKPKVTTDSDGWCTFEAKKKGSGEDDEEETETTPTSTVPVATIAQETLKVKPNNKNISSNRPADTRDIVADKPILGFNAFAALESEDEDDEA

Assay [6] has as its target T5, Eap1p-TAP (S. cerevisiae) (UniProt P36041).
T5 sequence: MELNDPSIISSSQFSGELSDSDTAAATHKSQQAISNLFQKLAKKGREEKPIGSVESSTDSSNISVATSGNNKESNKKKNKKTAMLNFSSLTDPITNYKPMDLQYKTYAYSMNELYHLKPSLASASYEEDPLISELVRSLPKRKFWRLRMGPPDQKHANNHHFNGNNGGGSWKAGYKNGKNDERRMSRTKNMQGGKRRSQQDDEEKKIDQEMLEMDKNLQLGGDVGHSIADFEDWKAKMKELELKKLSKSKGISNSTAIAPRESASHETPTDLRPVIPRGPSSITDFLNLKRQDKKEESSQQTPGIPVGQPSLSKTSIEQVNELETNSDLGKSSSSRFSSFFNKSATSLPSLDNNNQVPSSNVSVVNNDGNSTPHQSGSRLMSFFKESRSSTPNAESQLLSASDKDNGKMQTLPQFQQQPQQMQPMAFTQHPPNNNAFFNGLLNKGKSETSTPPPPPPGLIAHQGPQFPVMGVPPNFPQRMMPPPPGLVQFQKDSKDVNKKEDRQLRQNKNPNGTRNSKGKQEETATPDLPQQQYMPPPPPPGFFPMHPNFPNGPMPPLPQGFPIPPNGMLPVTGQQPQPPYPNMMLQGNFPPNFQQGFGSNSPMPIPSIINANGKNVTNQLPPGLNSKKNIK

These are yes or no findings as the source states them, for the method shown. In cells and extracts the contact can be indirect. Some binding calls cover weakened binding; strength is not graded here. For some assays here: Tags and fused reporters may be left off the sequences shown.

On to Pab1p (from UniProt P04147 1-577), for which the binding entry in assay [1] and in assay [2] was “binds” throughout.

B1: eIF4E (protein, UniProt P07260 1-213)
chain: MSVEEVSKKFEENVSVDDTTATPKTVLSDSAHFDVKHPLNTKWTLWYTKPAVDKSESWSDLLRPVTSFQTVEEFWAIIQNIPEPHELPLKSDYHVFRNDVRPEWEDEANAKGGKWSFQLRGKGADIDELWLRTLLAVIGETIDEDDSQINGVVLSIRKGGNKFALWTKSEDKEPLLRIGGKFKQVLKLTDDGHLEFFPHSSANGRHPQPSITL
On to B1, for which the binding entry in assay [1], in assay [3], in assay [4] and in assay [5] was “binds” throughout.

B2: eIF4G1 (protein, UniProt P39935 1-952)
chain: MTDETAHPTQSASKQESAALKQTGDDQQESQQQRGYTNYNNGSNYTQKKPYNSNRPHQQRGGKFGPNRYNNRGNYNGGGSFRGGHMGANSSNVPWTGYYNNYPVYYQPQQMAAAGSAPANPIPVEEKSPVPTKIEITTKSGEHLDLKEQHKAKLQSQERSTVSPQPESKLKETSDSTSTSTPTPTPSTNDSKASSEENISEAEKTRRNFIEQVKLRKAALEKKRKEQLEGSSGNNNIPMKTTPENVEEKGSDKPEVTEKTKPAEEKSAEPEVKQETPAEEGEQGEKGQIKEESTPKVLTFAERLKLKKQQKEREEKTEGKENKEVPVQEETKSAIESAPVPPSEQVKEETEVAETEQSNIDESATTPAIPTKSDEAEAEVEAEAGDAGTKIGLEAEIETTTDETDDGTNTVSHILNVLKDATPIEDVFSFNYPEGIEGPDIKYKKEHVKYTYGPTFLLQFKDKLNVKADAEWVQSTASKIVIPPGMGRGNRSRDSGRFGNNSSRGHDFRNTSVRNMDDRANSRTSSKRRSKRMNDDRRSNRSYTSRRDRERGSYRNEEKREDDKPKEEVAPLVPSANRWVPKFKSKKTEKKLAPDGKTELLDKDEVERKMKSLLNKLTLEMFDAISSEILAIANISVWETNGETLKAVIEQIFLKACDEPHWSSMYAQLCGKVVKELNPDITDETNEGKTGPKLVLHYLVARCHAEFDKGWTDKLPTNEDGTPLEPEMMSEEYYAAASAKRRGLGLVRFIGFLYRLNLLTGKMMFECFRRLMKDLTDSPSEETLESVVELLNTVGEQFETDSFRTGQATLEGSQLLDSLFGILDNIIQTAKISSRIKFKLIDIKELRHDKNWNSDKKDNGPKTIQQIHEEEERQRQLKNNSRSNSRRTNNSSNRHSFRRDAPPASKDSFITTRTYSQRNSQRAPPPKEEPAAPTSTATNMFSALMGESDDEE
Take B2: the figures for the binding result in assay [2], in assay [6] and in assay [5] were “binds”, “no binding” and “no binding”, respectively.

B3: endogenous Caf20p (protein, UniProt P12962 1-161)
chain: MIKYTIDELFQLKPSLTLEVNFDAVEFRAIIEKVKQLQHLKEEEFNSHHVGHFGRRRSSHHHGRPKIKHNKPKVTTDSDGWCTFEAKKKGSGEDDEEETETTPTSTVPVATIAQETLKVKPNNKNISSNRPADTRDIVADKPILGFNAFAALESEDEDDEA
Consider B3, for which the binding result in assay [2] was “binds”.

B4: Flag-tagged Caf20p (protein, UniProt P12962 1-161)
chain: MIKYTIDELFQLKPSLTLEVNFDAVEFRAIIEKVKQLQHLKEEEFNSHHVGHFGRRRSSHHHGRPKIKHNKPKVTTDSDGWCTFEAKKKGSGEDDEEETETTPTSTVPVATIAQETLKVKPNNKNISSNRPADTRDIVADKPILGFNAFAALESEDEDDEA
Consider B4, for which, in assay [2], the binding entry is recorded as “binds”.
